Measured values reported in PubChem BioAssay AID504466 (National Center for Advancing Translational Sciences (NCATS), 2011).
The campaign covered roughly 330,000 compounds. About 4,200 (1.3%) were called active. The inconclusive results got no clear call from the source; some entries with a clear call stand among them for comparison. Calls come from the whole dose curve; as a rule, active = well fitted activation curve with a large enough effect; inconclusive = small, poorly fitted or top-dose-only effect; inactive = no such curve, though single readings can be large or run the other way. A potency beside an inconclusive call is a rough fit, not a confirmed value.

test: qHTS screen for small molecules that induce genotoxicity in human embryonic kidney (HEK293T) cells expressing luciferase-tagged ELG1; conditions: HEK293T ELG1-luciferase reporter, luminescence, 16 h; series mostly up to 46 µM; note: nearly all actives have a fitted effect of over 60% in size
Method in brief: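 After overnight (16 hr) compound treatment at 37 °C, ELG1-luciferase HEK293T cells were lysed with ONE-Glo; luminescence quantified 30 min later at room temperature.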
Potency is the fitted concentration of half-maximal effect; tags give direction and shape of the fitted curve.

Row | SMILES | Potency
1 | COC(=O)NCN1C(=O)C2C3C=CC(C3)C2C1=O (stereo unspecified) | inconclusive: 11.6 µM [activator, partial curve, poor fit]
2 | O=C(Nc1cccc(-c2ccc(N3CCOCC3)nn2)c1)c1ccc(F)cc1F | inconclusive: 9.2 µM [activator, partial curve, poor fit]
3 | O=c1c2cc(-c3ccccc3)sc2ncn1-n1cccc1 | inconclusive: 5.17 µM [activator, partial curve, poor fit]
4 | COc1ccc(N/N=C(\C#N)C(=N)N2CCCCC2)cc1 | inconclusive: 18.3 µM [activator, partial curve]
5 | Fc1cccc(Nc2ncnc3c2cnn3-c2ccccc2)c1 | inconclusive: 18.3 µM [activator, partial curve, poor fit]
6 | COc1cccc(-c2csc(NC(=O)C3CC3)n2)c1 | active: 11.6 µM
7 | Cc1ccccc1OCC(=O)Nc1ccc(N2CCN(C)CC2)c(Cl)c1 | inconclusive: 13 µM [activator, partial curve]
8 | O=C1OC2(CCCC2)OC(=O)C1=Cc1c[nH]c2ccccc12 | inconclusive: 9.2 µM [activator, partial curve, poor fit]
9 | O=C1CCCN1c1ccc(N2CCCC2=O)cc1 | inactive
10 | Nc1nc(NCc2ccccc2)nc(Nc2cccc(F)c2)c1[N+](=O)[O-] | inconclusive: 23.1 µM [activator, partial curve, poor fit]
11 | O=C(OCc1ccc(C(=O)c2ccccc2)cc1)c1cccc(-c2nnc(-c3ccccc3)o2)c1 | inconclusive: 2.91 µM [activator, partial curve, poor fit]
12 | Cc1ccc(Nc2nc(C(=O)N3CCC(C(=O)N4CCN(C)CC4)CC3)cs2)cc1 | inactive
13 | O=C(NC(=S)Nc1ccc(F)cc1)c1ccc2c(c1)OCCO2 | inconclusive: 0.58 µM [activator, partial curve]
14 | O=C(CCN1C(=O)c2ccccc2C1=O)Nc1ccc(-c2nc3ccccc3s2)cc1 | active: 10.3 µM
15 | Cc1ccc2sc(NNC(=O)c3cc(=O)c4ccccc4o3)nc2c1C | inconclusive: 5.17 µM [activator, single point]
16 | COc1ccc2nc(-c3ccco3)c(-c3ccco3)nc2c1 | inconclusive: 7.31 µM [activator, partial curve]
17 | COc1cccc(/C=N/c2nc3ccccc3n2C)c1O | inactive
18 | NS(=O)(=O)c1ccc(N/C=C\C(=O)c2ccncc2)cc1 | inactive
19 | O=C(NCc1cccs1)c1cc(-c2ccccc2)on1 | active: 7.31 µM
20 | Brc1ccc(-c2noc(C3CCCCC3)n2)cc1 | inconclusive: 14.6 µM [activator, partial curve]
21 | Clc1ccc(-c2nnc(C3CCCCC3)o2)cc1 | inconclusive: 12.6 µM [activator, partial curve, poor fit]
22 | COc1ccc(C2(C)NC(=O)N(CC(=O)Nc3ccc(-c4nc5ccc(C)cc5s4)cc3)C2=O)cc1 (stereo unspecified) | inconclusive: 1.3 µM [activator, full curve]
23 | Nc1nn2cc(-c3ccccc3)nc2c2ccccc12 | active: 5.17 µM
24 | Cc1cccc(NC(=O)N2CCc3ccccc3C2)c1C | inconclusive: 14.6 µM [activator, partial curve, poor fit]

Row | SMILES | Potency
25 | CC(C)(O)C#Cc1ccc(C(=O)Nc2ccc3c(c2)OCO3)s1 | inconclusive: 18.3 µM [activator, partial curve]
26 | CC(C)c1cc(C(=O)NC2CCCCC2)no1 | inconclusive: 20.6 µM [activator, partial curve, poor fit]
27 | COCCCNC(=O)/C(C#N)=C/c1c(N2CCN(c3cccc(Cl)c3)CC2)nc2c(C)cccn2c1=O | inactive
28 | CC(=O)C1(C)N(O)C(C)(C)C(c2cccs2)=[N+]1[O-] (stereo unspecified) | active: 0.082 µM
29 | CCN1CCN(CCCOc2ccc(-c3ccccc3)cc2)CC1 | inconclusive: 20.6 µM [activator, single point]
30 | CC(C)(C)c1ccc(C(=O)NCCOc2ccccc2F)cc1 | active: 0.73 µM
31 | COC(=O)c1sc(-c2ccc(Cl)cc2)cc1N | inconclusive: 20.6 µM [activator, single point]
32 | c1ccc(-c2csc(Nc3cccnc3)n2)cc1 | inconclusive: 6.51 µM [activator, partial curve, poor fit]
33 | COc1cccc(OCc2cc(C(=O)N(C)Cc3nccn3C)no2)c1 | inconclusive: 23.1 µM [activator, partial curve]
34 | Cn1c(=O)c(C(=O)Nc2ccccn2)c(O)c2ccccc21 | inconclusive: 0.731 µM [activator, partial curve, poor fit]
35 | CCCCNC(=O)c1ccc(NC(=O)CC2SC(N3CCCC3)=NC2=O)cc1 (stereo unspecified) | inactive
36 | Cc1cc(C(C)(C)C)oc1C(=O)N(CC(=O)NC1CCCC1)c1c(C)cccc1C | inconclusive: 6.51 µM [activator, single point]
37 | Cc1nnc(NC(=O)c2cccc(Br)c2)s1 | inconclusive: 20.6 µM [activator, single point]
38 | Oc1ccccc1CNc1ccc2c(c1)OCCO2 | inconclusive: 16.4 µM [activator, partial curve]
39 | COc1ccc(/C=C/C(=O)NCCC(=O)N2CCCN(C)CC2)cc1 | inactive
40 | N=c1scc(-c2ccccc2)n1/N=C/c1ccco1 | inconclusive: 7.31 µM [activator, partial curve, poor fit]
41 | Cc1ccc(CNC(=O)C2CC3Cn4c(nc5cc(Cl)c(Cl)cc54)C3N2C)o1 (stereo unspecified) | inactive
42 | Cc1ccccc1-c1nnc(SCC(=O)Nc2cccnc2Cl)o1 | active: 2.06 µM
43 | O=C(c1ccc(F)cc1)n1ccc(-c2cnc(-c3ccccc3)s2)n1 | active: 0.82 µM
44 | O=C(Nc1ccccc1)O[C@@H]1C[C@H]2CCC(=O)N3CC[C@@H](C1)[C@@H]23 | inconclusive: 9.2 µM [activator, partial curve, poor fit]
45 | S=C(Nc1ccccc1Cl)N1CCC(c2ccccc2)C1 (stereo unspecified) | inconclusive: 8.2 µM [activator, partial curve]
46 | CCOC(=O)/C(C#N)=C/c1cc(C)n(-c2ccc(C)cc2)c1C | active: 1.84 µM
47 | O=C(NCc1c(Cl)cccc1Oc1ccccc1)c1ccccc1 | inactive
48 | CCCCOC(=O)c1ccc(N)cc1 | inconclusive: 23.1 µM [activator, partial curve, poor fit]

Row | SMILES | Potency
49 | N#C/C(=C\c1ccc(OCc2ccc(Cl)cc2)cc1)C(=O)Nc1cccc(C(=O)O)c1 | inconclusive: 3.26 µM [activator, single point]
50 | COc1ccccc1C(=O)N/N=C/c1cnc2ccccc2n1 | inconclusive: 25.9 µM [activator, single point]
51 | O=C(CN1CCOCC1)N/N=C/c1c(O)ccc2ccccc12 | inconclusive: 23.1 µM [activator, partial curve, poor fit]
52 | CCOC(=O)c1csc(CCNC(=O)c2oc3c(Cl)cc(C)cc3c2C)n1 | inconclusive: 23.1 µM [activator, partial curve, poor fit]
53 | COc1ccc(C(C)(C)C)cc1NC(=O)C1CC(=O)N(C2CCCC2)C1 (stereo unspecified) | inactive
54 | Cc1csc(NC(=O)c2cn3ccccc3n2)n1 | active: 0.73 µM
55 | COC(=O)c1cc(NC(=O)c2cc(-c3ccc(OC)cc3)oc2C(F)(F)F)ccc1N1CCOCC1 | inactive
56 | Cc1cc(C)c2c(N)c(C(=O)Nc3nccs3)sc2n1 | active: 0.326 µM
57 | Cc1cc(=O)[nH]c(SCc2ccc(Cl)cc2Cl)n1 | inactive
58 | O=C(N[C@@H](Cc1c[nH]c2ccccc12)C(=O)O)c1ccc(Cl)cc1 | inactive
59 | COCC(C)NC(=O)CCS(=O)(=O)c1nc(-c2ccc(OC)cc2)cc(C(F)(F)F)n1 (stereo unspecified) | inconclusive: 15.8 µM [activator, single point]
60 | O=C(/C=C/c1ccco1)Nc1ccc2c(c1)OCO2 | inconclusive: 2.91 µM [activator, partial curve]
61 | COc1ccccc1N1CCN(C(=O)CCCN2C(=O)c3cccc4cccc(c34)C2=O)CC1 | inactive
62 | CC(=O)Cc1nsc(NC(=O)c2csc3c2CCCC3)n1 | inconclusive: 20.6 µM [activator, partial curve]
63 | Cc1ccc(NC(=O)Nc2ccc3c(c2)nc(C)n3C)cc1 | inconclusive: 2.59 µM [activator, full curve]
64 | COc1cccc(OCCCCSc2ncccn2)c1 | inconclusive: 35.5 µM [activator, single point]
65 | Cc1c(-c2nc(-c3ccc(C(C)(C)C)cc3)no2)n(C)oc1=O | inconclusive: 0.116 µM [activator, full curve]
66 | COc1ccc(CC(=O)Nc2nc(-c3cccc([N+](=O)[O-])c3)cs2)cc1 | inconclusive: 18.4 µM [activator, partial curve, poor fit]
67 | COc1ccc(-n2c(SCC(=O)N(C)c3ccccc3)nc3c([nH]c4ccccc43)c2=O)cc1OC | inconclusive: 20.6 µM [activator, single point]
68 | Clc1cccc(CSc2nnc(-c3c[nH]c4ccccc34)o2)c1 | inconclusive: 23.1 µM [activator, partial curve, poor fit]
69 | Cc1c(C(=O)N(CCO)Cc2ccccc2)oc2c(F)cccc12 | inconclusive: 25.9 µM [activator, partial curve, poor fit]
70 | Cc1cc(SCC(=O)c2ccccc2)nc(C)n1 | inconclusive: 9.2 µM [activator, single point]
71 | Cc1c(C)c2ccc(OCC(=O)Nc3ccccn3)c(C)c2oc1=O | inconclusive: 0.0046 µM [activator, full curve, poor fit]
